In PubChem BioAssay AID463173 (ICCB-Longwood Screening Facility, Harvard Medical School, 2010):
The campaign covered roughly 52,000 compounds. About 1,700 (3.3%) were called active. No stated cut-off is given here; in the data, active means survival mostly below about 52% (no sharp cut-off); inactive means mostly above about 56%. The list shows a part of the results.

System: Wild type
Assay: growth inhibition of S. aureus wild type versus tarO mutant, primary screen, teichoic acid synthesis inhibitors, RN4220, OD600 (AID 463173)
Settings: S. aureus RN4220 wild type/DeltatarO growth, OD600, 18 h, hits give low values, screened at 18.75 µg/mL (by protocol)

| Structure (SMILES) | survival |
| --- | --- |
| N#Cc1c(/N=C/c2ccco2)oc(-c2ccccc2)c1-c1ccccc1 | inactive: 114% |
| CC(NC(=O)C1(c2cccs2)CCOCC1)c1ccccc1 (stereo unspecified) | inactive: 71% |
| CCn1cc(C(=O)N2CCN(c3cc(Cl)ccc3C)CC2)c2cc(OC)c(OC)cc2c1=O | inactive: 86% |
| Cc1ccc(CN2CCSc3ccc(C(=O)Nc4ccc(Cl)cc4)cc32)cc1 | inactive: 81% |
| CCCN(CCC)CCCNC(=O)c1cc2c(=O)oc3ccc(C)cc3c2s1 | inactive: 91% |
| Cc1nc2cccnc2n1C1CCN(S(=O)(=O)c2ccc(Cl)cc2)CC1 | inactive: 84% |
| CN(C)S(=O)(=O)n1cc(/C=C(\NC(=O)c2ccccc2F)C(=O)NCCCn2ccnc2)c2ccccc21 | inactive: 105% |
| CC(=O)Nc1nnc(SCC(=O)N2CCCC2)s1 | inactive: 99% |
| Cc1ccc2cc(CN(Cc3ccccc3)C(=O)C3CC3)c3nnnn3c2c1 | inactive: 116% |
| Cc1ccccc1CN1CCC(CNc2ncnc3onc(-c4ccc(Cl)cc4)c23)CC1 | inactive: 60% |
| Cc1ccc2nc(/C(C#N)=C/c3cccc(Br)c3)[nH]c2c1 | active: -11% |
| O=C(Cc1csc2ccccc12)NCc1cccc(Br)c1 | inactive: 91% |
| Cc1ccc(NC(=O)C2CCCN(c3ncnc4c3nc3n4CCCCC3)C2)cc1F (stereo unspecified) | inactive: 73% |
| COc1ccc2[nH]c(=O)c(CN(Cc3cccs3)C(c3nnnn3C(C)(C)C)C(C)C)cc2c1 (stereo unspecified) | inactive: 96% |
| O=C(O)CC(NS(=O)(=O)c1ccc(Cl)s1)c1ccccc1 (stereo unspecified) | inactive: 71% |
| Cc1nc2cccnc2n1-c1cccc(C(=O)NCc2ccc(OC(C)C)cc2)c1 | inactive: 68% |
| COc1cc(NS(=O)(=O)c2ccc(NC(=O)C(C)Oc3ccc(Cl)cc3Cl)cc2)nc(OC)n1 (stereo unspecified) | inactive: 64% |
| CCOc1ccc(NC(=O)c2c(NC(=O)c3ccco3)sc3c2CCC(C(C)(C)C)C3)cc1 (stereo unspecified) | inactive: 80% |
| O=C(NCc1ccccc1Cl)C1CCN(S(=O)(=O)c2ccc3c(c2)CCCN3C(=O)C2CCC2)CC1 | inactive: 80% |
| CCC12CN3CC(C)(CN(C1)C3c1ccc(O)cc1O)C2=O (stereo unspecified) | inactive: 85% |
| CC(C)c1ccccc1NC(=O)CC(C)(C)C | inactive: 121% |
| Cc1cc(C)cc(Oc2coc3c(CN4CCN(C)CC4)c(O)ccc3c2=O)c1 | inactive: 72% |
| COc1ccc(Nc2c(-c3ccc(Cl)cc3)nc3cnccn23)cc1OC | inactive: 75% |

| Structure (SMILES) | survival |
| --- | --- |
| CCOc1ccc(NC(=O)c2sc3nc4c(cc3c2N)CCCCCC4)cc1 | inactive: 81% |
| COc1cccc(C(=O)Nc2cc(-c3cn4cccnc4n3)ccc2C)c1OC | inactive: 89% |
| CC(C)NS(=O)(=O)c1cccs1 | inactive: 106% |
| O=C(c1cccs1)N(Cc1cccnc1)c1nc2ccc(F)cc2s1 | inactive: 85% |
| Cc1ccc(OCC(=O)Nc2ccccc2C(=O)OCc2cc(=O)n3nc(C4CC4)sc3n2)cc1 | inactive: 71% |
| Cc1nc2ccccn2c(=O)c1NC(=O)c1c(F)cccc1F | inactive: 82% |
| CC1CCN(C(=O)c2c(NC(=O)c3ccccc3F)sc3c2CCC(C(C)(C)C)C3)CC1 (stereo unspecified) | active: -2% |
| CCCN(CCC)CCCNC(=O)C1CCC(CNS(=O)(=O)c2cccc3nsnc23)CC1 (stereo unspecified) | inactive: 91% |
| Cc1ccc(CN(Cc2ccco2)C(=O)COc2c(C)cc(C)cc2C)cc1 | inactive: 87% |
| CCn1cc(S(=O)(=O)c2ccc(OC)cc2)c(=O)c2cc(F)c(N3CCC(C)CC3)cc21 | inactive: 89% |
| CC(C)C(c1nnnn1C(C)(C)C)N(Cc1cc2cc3c(cc2[nH]c1=O)OCCO3)C1CCCCC1 (stereo unspecified) | inactive: 101% |
| Oc1ccc(-c2nc3ccccn3c2Nc2ccc3c(c2)OCCO3)cc1 | inactive: 63% |
| CCCCNS(=O)(=O)c1ccc2nc(-c3cccnc3)cc(C(=O)NCCC)c2c1 | inactive: 66% |
| COCCCNC(=O)c1ccc2nc(Cc3ccc(OC)cc3)oc2c1 | inactive: 68% |
| COCCNC(=O)CSc1c2c(nc3cc(Cl)ccc13)CCCC2 | inactive: 71% |
| CCCc1nn2c(=O)cc(COC(=O)c3cccc(NC(=O)CCc4ccccc4)c3)nc2s1 | inactive: 129% |
| NCCCCCc1nnc(SCc2ccc(F)cc2)o1 | inactive: 68% |
| CCOc1ccc(CNC(=O)C2CCN(S(=O)(=O)N3CCCCC3)CC2)cc1 | inactive: 71% |
| CCCCSc1nnc2n(-c3cccc(C)c3)c(=O)c3c4c(sc3n12)CCCC4 | active: -1% |
| CC(=O)Nc1nonc1-c1nnc(SCc2ccc(F)cc2)n1C | inactive: 83% |
| COc1ccc(C(C#N)N2N=C(C)CC2c2ccccc2)cc1OC (stereo unspecified) | inactive: 101% |
| Cc1cccc(OCc2nc(C#N)c(NCc3ccccc3Cl)o2)c1 | inactive: 23% |
| CCOC(=O)C1CCN(C(=O)CSc2n[nH]c(-c3ccccc3)n2)CC1 | inactive: 99% |

| Structure (SMILES) | survival |
| --- | --- |
| Cc1ccc2nc(COc3ccc(NC(=O)COc4ccccc4F)cc3)cc(=O)n2c1 | inactive: 128% |
| COc1ccc(NC(=O)CSc2nc3ccccc3[nH]2)cc1 | inactive: 71% |
| COc1ccc(CC(=O)OC2CCCN(C)C2)cc1 (stereo unspecified) | inactive: 100% |
| Fc1ccccc1Oc1ncnc2c1oc1ccccc12 | inactive: 32% |
| Clc1ccc(-c2csc(=Nc3ccccc3)n2Cc2ccc3c(c2)OCO3)cc1 | inactive: 103% |
| CCCCC(CC)CNC(=O)CCCc1nnc2n(CCC)c(=O)c3sccc3n12 (stereo unspecified) | inactive: 68% |
| Cc1ccc(NC(=O)CSCn2nnc3c(=O)[nH]c(Cc4ccc(F)cc4)nc32)c(C)c1 | inactive: 103% |
| Cc1ccc(C)c(N2CCN(C(=O)Cn3c(=O)c4cccn4c4ccc(F)cc43)CC2)c1 | inactive: 82% |
| COc1ccc(-c2cc3nc(C)c(CCC(=O)N4CCN(c5ccccc5)CC4)c(C)n3n2)c(OC)c1 | inactive: 72% |
| Cc1c(CC(=O)NCc2ccccc2)c(=O)oc2c(C)c(O)ccc12 | inactive: 86% |
| Cc1cc(C)c2nc(NC(=O)c3ccc(S(=O)(=O)N4CCCC4)cc3)sc2c1 | inactive: 99% |
| CC(CC1C(C#N)=C(N)SC(N)=C1C#N)c1ccccc1 (stereo unspecified) | inactive: 101% |
| COc1cc2c(=O)c(C(=O)c3ccc(C)c(C)c3)cn(Cc3ccccc3)c2cc1OC | inactive: 86% |
| Cc1cccc(N2CCN(C(=O)c3ccc4c(c3)N(Cc3ccccc3F)C(=O)c3ccccc3S4=O)CC2C)c1 (stereo unspecified) | inactive: 93% |
| CCOC(=O)/C(C#N)=C\c1ccc(Br)s1 | inactive: 104% |
| CCOc1cc(C2C(C(=O)OC)=C(C)NC3=C2C(=O)c2ccccc23)c(Br)cc1OC (stereo unspecified) | inactive: 75% |
| CCOCCCNC(=O)Cn1nc(C)n2c(cc3cc(C)ccc32)c1=O | inactive: 82% |
| CCCCN(CCCNC(=O)CN1N=C(c2ccccc2)CCC1=O)c1ccccc1 | inactive: 72% |
| O=C(COc1ccccc1Cl)Nc1nc2c(s1)CCCC2 | inactive: 53% |
| Cc1cccc(NC(=O)C2CCCN(S(=O)(=O)c3cccc4nonc34)C2)c1C (stereo unspecified) | inactive: 136% |
| CCc1cc(C(=O)O)c(NC(=O)c2ccccc2)s1 | inactive: 87% |
| CCN1CCC(N(Cc2ccc3c(c2)OCO3)C(=O)Nc2cc(Cl)ccc2C(=O)OC)CC1 | inactive: 131% |
| CCCOC(=O)c1c(C)oc2c1cc(NS(=O)(=O)c1ccc(OCC)cc1)c1ccccc12 | inactive: 37% |

| Structure (SMILES) | survival |
| --- | --- |
| COc1cc2c(cc1NC(=O)COc1cc(C)ccc1C)oc1ccccc12 | inactive: 88% |
| Cc1cc(C(=O)O)c2c(=O)n(C)c(=O)n(C)c2n1 | inactive: 81% |
| COc1ccc(-c2cn3c(n2)sc2cc(C(=O)NC4CCCc5ccccc54)ccc23)cc1 (stereo unspecified) | inactive: 78% |
| Cc1cc2oc(=O)c(CC(=O)NCCc3ccccc3)c(C)c2c2occ(C(C)(C)C)c12 | inactive: 91% |
| CC(=Nc1ccc(C)cc1)c1ccc(O)cc1O | inactive: 95% |
| Cc1cccc(N2CCN(C(=O)c3cn(C4CCCCC4)c(=O)c4c3c3ccccc3n4C)CC2)c1C | inactive: 109% |
| CCN(C(=O)CCc1nc(-c2ccc(C)cc2)no1)c1cc(C)ccc1C | active: 0% |
| CCCCN(C)CCCNC(=O)c1ccc2nc(N3CCCCC3)sc2c1 | inactive: 88% |
| Cc1cccc(OCCSc2nc3ccccc3n2CC(=O)N2CCCCC2)c1C | inactive: 51% |
| CCN(Cc1ccccc1)Cc1c(O)ccc2c(=O)c(-c3ccccc3OC)c(C(F)(F)F)oc12 | inactive: 87% |
| CC(=O)Nc1nonc1-c1nnc(SCC(=O)Nc2ccc(F)cc2F)n1-c1ccccc1 | inactive: 22% |
| Cc1c(C)n(Cc2ccccc2)c2ccc(C(=O)NC(C)c3ccccc3)cc12 (stereo unspecified) | inactive: 83% |
| Cc1ccc(Cn2c(CNS(=O)(=O)c3c(C)cc(C)cc3C)nc3cccnc32)cc1 | inactive: 124% |
| CCOC(=O)c1ccc(N2CCN(c3cc(Cl)ccc3C)CC2)c(NC(=O)Nc2cccc(OC)c2)c1 | inactive: 60% |
| CCOCCCNC(=O)C1CCCN(Cc2nc(-c3ccc(CC)cc3)oc2C)C1 (stereo unspecified) | inactive: 84% |
| CC(C)NC(=O)Cn1cc(C(=O)C(C)C)c2ccccc21 | inactive: 96% |
| CCOC(=O)N1CCN(S(=O)(=O)N2CCCC(C(=O)NCc3cc(OC)ccc3OC)C2)CC1 (stereo unspecified) | inactive: 81% |
| COc1ccc(N2CC(NC(=O)/C=C\c3ccc(OC)c(OC)c3)CC2=O)cc1 (stereo unspecified) | inactive: 65% |
| CCc1ccc(-n2c(SC(CC)C(=O)N(CC)CC)nc3n[nH]c(C)c3c2=N)cc1 (stereo unspecified) | inactive: 121% |
| Cc1nc(CC(=O)Nc2ccc(C)c(C)c2)cs1 | inactive: 80% |
| CCn1ccc2cc(S(=O)(=O)N3CCCN(C(=O)Nc4ccccc4OC)CC3)ccc21 | inactive: 66% |
| CCc1ccc(OCC(=O)N(Cc2cccs2)c2ccc(Cl)cc2)cc1 | inactive: 83% |
